From the supplement of paper PMC12217912
Some of the results follow. Sequences were assembled here from the parent chain. Values near 0.05 are background.

B1: TEV protease; numbered along this chain (parent)
chain: MGESLFKGPRDYNPISSSICHLTNESDGHTTSLYGIGFGPFIITNKHLFRRNNGTLVVQSLHGVFKVKDTTTLQQHLVDGRDMIIIRMPKDFPPFPQKLKFREPQREERICLVTTNFQTKSMSSMVSDTSCTFPSGDGIFWKHWIQTKDGQCGSPLVSTRDGFIVGIHSASNFTNTNNYFTSVPKNFMELLTNQEAQQWVSGWRLNADSVLWGGHKVFMVKPEEPFQPVKEATQL

Variants of: B1
Assay: raw area under fraction-flipped curve 0-4 h after induction (AUC4h, not background-subtracted), DNA-recorder readout of cleavage of the substrate (dimensionless); higher = more cleavage of the substrate by the protease variant
Settings: temperature: 34 °C; time window: 0-4 h after rhamnose induction
Procedure: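 In vivo DNA recorder in E. coli TOP10(DE3) ΔrhaA at 34 °C. Each TEVp single-site mutant (parent TEVp 0) is paired with a single-site variant of the 7-mer TEVs (canonical ENLYFQ|S). The substrate sits between flexible linkers in a Bxb1-sfGFP-TEVs-SsrA fusion, so cleavage stabilises Bxb1 and speeds flipping of a recombination array, read by NGS. The value is the raw area under the fraction-flipped curve over 0-4 h after rhamnose induction (AUC4h), with ≥20 reads per time point. It is not background-subtracted; inactive controls average about 0.047.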
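Also: Bxb1 expression induced with 0.2% (w/v) L-rhamnose at OD600 near 0.5, cultures sampled hourly, flipped fraction per protease–substrate barcode pair counted by paired-end Illumina sequencing.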

Variant	area with substrate ENLYFQC	area with substrate ENLYFQD	area with substrate ENLYFQG	area with substrate ENLYFQH	area with substrate ENLYFQI	area with substrate ENLYFQK	area with substrate ENLYFQL	area with substrate ENLYFQN	area with substrate ENLYFQP	area with substrate ENLYFQR	area with substrate ENLYFQS	area with substrate ENLYFQT	area with substrate ENLYFQV	area with substrate ENLYFQW	area with substrate ENLYFQY	area with substrate ENLYFQM	area with substrate ENLYFQA	area with substrate ENLYFQE	area with substrate ENLYFQQ	area with substrate ENLYFQF
F38N	0.108	0.0545	0.108	0.0653	0.0522	0.0545	0.054	0.0646	0.0603	0.0493	0.0803	0.0623	0.0329	0.0742	0.0498					
G39H	0.045	0.0481	0.049		0.0394	0.0423	0.0371		0.032	0.0239	0.0454		0.0545	0.0466	0.0442	0.0443				
E231Q	0.0919	0.0734	0.0973	0.0533	0.0554		0.0527	0.072			0.102	0.0642		0.0682	0.0741	0.0936	0.107			
V58F	0.0868	0.0513		0.0604	0.0453			0.0893	0.05	0.0505	0.091			0.0496				0.0713		
I15H	0.115		0.121	0.0705	0.0628	0.0665	0.0577	0.076	0.0495	0.0605	0.102	0.0649		0.0701		0.1			0.0736	
M219Y	0.116				0.0498		0.058				0.111	0.0491	0.0582			0.0939	0.0973			
M219I	0.111	0.0685			0.0525	0.0459	0.0551		0.0791	0.0589	0.0993	0.0501		0.0764	0.0693		0.0846			
M219G	0.0888		0.0639	0.0604	0.0568	0.0619	0.0566	0.0461	0.0588	0.0573	0.0828	0.0668	0.0573	0.0547		0.0762	0.0753			
V217D	0.0585		0.0589	0.0608		0.0618	0.0621	0.0653		0.0697	0.0586				0.0546	0.0576	0.0632			
D11G	0.114	0.0685	0.141	0.0675	0.0678	0.0715	0.064	0.0834	0.0701	0.0597	0.0993	0.0628	0.0459	0.062	0.0839	0.116			0.0768	
D11N	0.127	0.0672	0.101	0.0794	0.0525	0.0613	0.055	0.072	0.0647	0.0592	0.0947	0.0653	0.0402	0.0638	0.0696	0.0715				0.0791
P225L	0.0993	0.0758	0.0881	0.0665		0.078	0.0588			0.0569	0.0951	0.0623		0.0689	0.0766	0.0918	0.114	0.0618		
P225A	0.112	0.0734	0.116	0.0631	0.0666	0.0599	0.0729	0.0747		0.0581	0.106	0.0671	0.0551	0.0703	0.0736		0.0645	0.0616	0.0691	
